Experimental data reported in PubChem BioAssay (NCI).
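Five compound concentrations were applied to cells in 96-well plates for 48 hours; endpoints were derived by simple linear interpolation of the resulting dose-response curve. GI50: concentration for 50% inhibition of growth. TGI: total growth inhibition.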

tested on: NCI-H322M lung; assay: DTP human tumour cell line panel, 48 h

Structure (SMILES) | TGI [µM] | GI50 [µM]
COC(=O)[C@@H](COC(=O)/C=C/c1ccc(OC(C)=O)c(OC(C)=O)c1)NC(=O)/C=C/c1ccc(OC(C)=O)c(OC(C)=O)c1 | > 100 | –
C/C(O)=C/c1nc2sc(C)c(C)c2c(=O)s1 | > 100 | –
CCN(CC)CCSc1nc2c([N+](=O)[O-])cccc2[nH]1 | > 100 | –
CC1(C)O[C@@H]([C@@H](O)[C@H](O)C2SCCCS2)[C@@H](CO)O1 | > 100 | –
CCN1C(=O)N(CC)C2C1NN=c1s/c(=C\c3ccc([N+](=O)[O-])cc3)c(=O)n12 (stereo unspecified) | > 100 | 0.73
CC(C)c1cccc(C(C)C)c1NC(=S)Nc1ccccc1 | > 100 | –
ClCc1nc2cc(Cl)ccc2o1 | 27.3 | –
CC[C@]12C=CCN3CC[C@]4(C(=C(C(=O)OC)C1)Nc1ccccc14)[C@@H]32 | 24.6 | 10.9
c1ccc(COc2ccc(Nc3ncnc4ccc(-c5ccco5)cc34)cc2)cc1 | > 25 | 11
CN(C)c1ccc(N=C(C#N)c2nc(N)nc(N3CCOCC3)n2)cc1 | > 100 | 41.8
O=C1c2cc([N+](=O)[O-])cnc2S(=O)(=O)N1c1ccc(Oc2ccccc2)cc1 | > 100 | –
NC1=NC(=O)[C@H](CSCc2ccccc2)N1C(=O)OCc1ccccc1 | > 100 | –
COc1ccc(C2=NN(c3ccc(S(N)(=O)=O)cc3)C(c3ccc(Cl)cc3)C2)c(O)c1 (stereo unspecified) | 38.8 | 5.23
Nc1cccc2cc(S(=O)(=O)Nc3ccc(C(=O)O)cc3)ccc12 | > 100 | –
NC(N)=NCCCS(=O)(=O)Nc1ccc(Nc2c3ccccc3nc3cc([N+](=O)[O-])ccc23)cc1 | 32.7 | –
CCOC(=O)C12CN(C34CC5CC(CC(C5)C3)C4)CC(C(=O)OCC)(C1=O)C(c1ccccc1)OC2c1ccccc1 (stereo unspecified) | > 100 | –
